Experimental data published in the supplement of paper PMC4723716.
± gives the uncertainty stated by the source. In all, about 9,900 compounds were measured (“viability index relative to DMSO control”: median about 1, lowest 2% from about 0.85 on). The list shows a part of the results.

System: Plasmodium falciparum NF54 stage V gametocytes
Experiment: viability index relative to DMSO control (fraction); higher = less gametocyte killing
Conditions: 2.5 µM, incubation time: 72 h
Method in brief: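 Gametocytes (P. falciparum NF54, stage V) were treated with compound at 2.5 µM for 72 hr at 37°C in low oxygen, in serum-free medium at 0.75% gametocytemia and 1.25% hematocrit. Counts of 20–70 µm2 red particles, taken from one field per well after MitoTracker Red CMXRos with saponin, were divided by the plate mean of solvent-only wells. This ratio is the viability index.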

[1] = library set: Broad Institute DOS

Row | Compound | viability index [1] | viability index (library set: Broad Institute Blood Stage)
1 | CCCNC(=O)N1CC(=O)N2[C@H](CO)[C@H](c3ccc(C#CCC4CCCC4)cc3)[C@H]2C1 | 1.01 ± 0.12 | –
2 | CN1C[C@H]2[C@@H](c3ccccc31)[C@@H](CO)N2Cc1ccccc1Cl | 1.08 ± 0.043 | –
3 | CO[C@H]1CN(C)C(=O)c2cc(NS(=O)(=O)c3cccc(Cl)c3)ccc2OC[C@H](C)NC[C@@H]1C | 1.044 ± 0.0029 | –
4 | CC(C)C#Cc1ccc([C@@H]2[C@@H](CO)N3C(=O)CN(C(=O)NC4CCCC4)C[C@H]23)cc1 | 1.14 ± 0.049 | –
5 | O=C(C[C@@H]1CC[C@H]2[C@@H](COC[C@@H](O)CN2Cc2cccc(Cl)c2)O1)NCc1cccc(F)c1 | 1.09 ± 0.088 | –
6 | C[C@H](CO)N1C[C@H](C)[C@H](CN(C)S(=O)(=O)c2ccc3c(c2)OCCCO3)OCc2cnnn2CCCC1=O | 1.05 ± 0.073 | –
7 | O=S(=O)(c1ccccc1)N1CCCCN2[C@H](CO)[C@@H](c3ccc(C#CC4CCCC4)cc3)[C@H]2C1 | 1.03 ± 0.056 | –
8 | CCCNC(=O)N1[C@H](C#N)[C@@H](c2ccccc2-c2cccc(C)c2)[C@@H]1CO | 0.977 ± 0.11 | –
9 | O=C(C[C@@H]1CC[C@H]2[C@@H](COC[C@@H](O)CN2C(=O)Nc2cc(Cl)cc(Cl)c2)O1)N1CCOCC1 | 1.08 ± 0.055 | –
10 | O=C(C[C@H]1CC[C@H](NS(=O)(=O)c2ccccc2F)[C@H](CO)O1)NCCCN1CCOCC1 | 0.896 ± 0.1 | –
11 | C[C@H]1CN([C@@H](C)CO)C(=O)CCCn2cc(nn2)CO[C@H]1CN(C)Cc1ccccc1 | 1.03 ± 0.045 | –
12 | O=C(Nc1ccc2c(c1)[C@H]1C[C@@H](CC(=O)N3CCOCC3)O[C@@H](CO)[C@H]1O2)Nc1ccccc1F | 1.15 ± 0.057 | –
13 | COc1ccc(S(=O)(=O)Nc2ccc3c(c2)C(=O)N([C@@H](C)CO)C[C@H](C)[C@@H](CN(C)C(=O)Nc2c(C)noc2C)OCCCC[C@@H](C)O3)cc1 | 1.06 ± 0.067 | –
14 | C[C@@H]1CCCCO[C@H](CN(C)C(=O)Nc2ccc3c(c2)OCO3)[C@@H](C)CN([C@@H](C)CO)C(=O)c2cc(NS(=O)(=O)c3ccc(F)cc3)ccc2O1 | 1.02 ± 0.07 | –
15 | C/C=C/c1ccc([C@H]2[C@@H](CO)N(Cc3cccnc3)C23CN(C(=O)CC)C3)cc1 | 1.02 ± 0.063 | –
16 | N#C[C@H]1[C@H](c2ccc(-c3cccnc3)cc2)[C@H](CO)N1C(=O)Nc1ccc(F)cc1 | 1.04 ± 0.022 | –
17 | COc1ccc2c3c([nH]c2c1)[C@H](CO)N(C[C@]31CN(Cc2ccccc2)C1)C(=O)CN1CCOCC1 | 0.878 ± 0.064 | –
18 | Cc1cccc(S(=O)(=O)N2C[C@@H]3N[C@H](C2)[C@@H]3c2ccc(-c3cncnc3)cc2)c1 | 1.12 ± 0.077 | –
19 | COCc1cn(CC[C@@H]2CC[C@H](NC(=O)Nc3c(C)noc3C)[C@H](CO)O2)nn1 | 0.951 ± 0.12 | –
20 | O=C(c1ccccc1)N1[C@H](CO)[C@@H](c2ccccc2)C12CN(Cc1nccs1)C2 | 1.05 ± 0.13 | –
21 | O=C(C[C@@H]1CC[C@H]2[C@@H](COC[C@H](O)CN2Cc2ccc(C(F)(F)F)cc2)O1)N1CCc2ccccc2C1 | 1.05 ± 0.035 | –
22 | COc1ccccc1NC(=O)N1CCCCN2[C@H](CO)[C@H](c3ccc(-c4cccc(C#N)c4)cc3)[C@@H]2C1 | 1.01 ± 0.011 | –
23 | C[C@@H]1CCCCO[C@@H](CN(C)Cc2ccc(Cl)c(Cl)c2)[C@H](C)CN([C@H](C)CO)C(=O)c2cc(NS(=O)(=O)c3cccs3)ccc2O1 | 0.982 ± 0.087 | –

Row | Compound | viability index [1] | viability index (library set: Broad Institute Blood Stage)
24 | COC(=O)C[C@H]1C[C@H]2c3cc(N)ccc3O[C@H]2[C@@H](CO)O1 | 0.953 ± 0.038 | –
25 | O=C(Nc1ccc2c(c1)[C@H]1C[C@@H](CC(=O)N3CCc4ccccc4C3)O[C@H](CO)[C@H]1O2)c1ccc2c(c1)OCO2 | 1.04 ± 0.093 | –
26 | Cc1noc(C)c1S(=O)(=O)Nc1ccc2c(c1)C(=O)N([C@H](C)CO)C[C@@H](C)[C@H](CN(C)C(=O)NC1CCCCC1)O2 | 1.01 ± 0.037 | –
27 | CN(C)C(=O)c1cccc(-c2ccc([C@H]3[C@H]4CNC[C@@H]3N4Cc3ccc4c(c3)OCO4)cc2)c1 | 0.999 ± 0.025 | –
28 | CN1C(=O)c2cc(NC(=O)Cc3cccs3)ccc2OC[C@@H]2O[C@H](CC(=O)NCCc3ccncc3)CC[C@H]21 | 1.17 ± 0.17 | –
29 | C[C@H](CO)N1C[C@H](C)[C@@H](CN(C)Cc2ccc(Oc3ccccc3)cc2)OCc2ccccc2-c2ccccc2C1=O | 0.801 ± 0.016 | –
30 | O=S(=O)(NC[C@@H]1[C@@H](c2ccccc2)[C@@H](CO)N1CC1CC1)c1ccccc1 | 0.898 ± 0.14 | –
31 | C[C@H](CO)N1C[C@H](C)[C@@H](CN(C)Cc2ccc3c(c2)OCO3)Oc2cc(Br)ccc2S1(=O)=O | 0.942 ± 0.033 | –
32 | COc1ccc(NC(=O)N(C)C[C@H]2OCc3ccccc3-c3ccccc3C(=O)N([C@H](C)CO)C[C@H]2C)c(OC)c1 | 1.06 ± 0.018 | –
33 | N#C[C@@H]1[C@H](c2ccccc2-c2ccccc2F)[C@H](CO)N1C(=O)c1cccc(F)c1 | 1.11 ± 0.11 | –
34 | CNC[C@H]1OCc2ccccc2-c2ccccc2C(=O)N([C@H](C)CO)C[C@H]1C | 0.97206 ± 7.4e-05 | –
35 | C[C@@H](NC(=O)C[C@H]1CC[C@H]2[C@@H](COc3ccc(NC(=O)C4CCOCC4)cc3C(=O)N2C)O1)c1ccccc1 | 1.18 ± 0.017 | –
36 | COc1ccc2c3c([nH]c2c1)[C@@H](CO)NC[C@]31CN(C1)C(=O)Nc1ccc2OCOc2c1 | 1.03 ± 0.088 | –
37 | COc1cccc(S(=O)(=O)Nc2ccc3c(c2)C(=O)N(C)C[C@@H](OC)[C@H](C)CN(Cc2ccccc2F)[C@@H](C)CO3)c1 | 0.994 ± 0.043 | –
38 | O=C(NCC[C@H]1CC[C@@H](NC(=O)c2ccncc2)[C@@H](CO)O1)Nc1ccc(Cl)cc1 | 1.086 ± 0.0063 | –
39 | O=C1CCC(=O)N[C@@H](c2ccc3c(c2)OCO3)C/C=C\CCN1 | 0.996 ± 0.021 | –
40 | O=C(C[C@@H]1CC[C@@H]2[C@H](COC[C@@H](O)CN2Cc2cc(F)cc(F)c2)O1)Nc1nccs1 | 1.05 ± 0.071 | –
41 | COc1ccc(-c2ccc([C@H]3[C@H]4CNC[C@@H]3N4Cc3cncnc3)cc2)cc1 | 0.996 ± 0.058 | –
42 | C[C@@H]1CN([C@@H](C)CO)C(=O)c2cccc(NC(=O)Nc3ccccc3)c2O[C@@H]1CN(C)C(=O)Nc1ccccc1 | – | 0.703 ± 0.052
43 | COC(=O)[C@H]1[C@H](CO)[C@H]2Cn3c(ccc(-c4ccccc4OC)c3=O)[C@H]2N1C(=O)c1cnccn1 | 1.02 ± 0.027 | –
44 | COc1ccc2c3c([C@H](CO)N(C[C@]33CN(C3)C(=O)Cc3ccncc3)C(=O)Nc3ccc(F)cc3)n(C)c2c1 | 1.09 ± 0.05 | –
45 | CCS(=O)(=O)NCC[C@@H]1CC[C@H](NS(=O)(=O)c2ccccc2C)[C@H](CO)O1 | 1.1 ± 0.064 | –
46 | CCCNC(=O)N(C)C[C@@H]1Oc2cc(C#C[C@@H](C)O)ccc2S(=O)(=O)N([C@H](C)CO)C[C@H]1C | 1.08 ± 0.02 | –
